In the supplement of paper PMC3724861:
The list shows a part of the results.

System: T1, Caupolican (Caup) homeodomain DNA-binding domain
T1 sequence: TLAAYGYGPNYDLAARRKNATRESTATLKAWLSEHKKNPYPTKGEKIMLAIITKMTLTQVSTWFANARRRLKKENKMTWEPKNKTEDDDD
Assay: PBM E-score (8-mer, recovered from the published 9-mer minima) (E-score (dimensionless, -0.5 to 0.5)); Drosophila protein; higher = stronger relative binding preference, active = 0.31 or more
Procedure, shortened: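 Caup's homeodomain DNA-binding domain (residues 214-303) was produced by in vitro transcription and translation and applied at 100 nM to custom-designed protein binding microarrays. Each value is an enrichment score giving relative binding preference for a short DNA word; higher means stronger. Published 9-mer scores were the minimum of their two constituent 8-mer scores, and the 8-mer values were recovered from those minima. A cutoff of 0.31 marks candidate binding sequences.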

PBM E-score, ≥ 0.153:
ATGAGCAT

PBM E-score, inactive:
GGAACCCC -0.198, CTGTCAAG -0.017, CCTCAAAA -0.00347, GCTTTACC 0.104, ATGAGTAC 0.185, CCTAGGTC -0.164, AACTTTTA 0.002, CCTCGTAC 0.043, TAACTGGA 0.00487, GCCGTGCA -0.068, GGCCTACC -0.17, CCTACTAC 0.0788, ATTGCCCC -0.0891, CCAGGCCC -0.267, GCGTCAGA -0.0394, GCCGATTA 0.0515, CATTAGGG -0.119, AAAGTAGT 0.0876, GATTACCA 0.0721, AGACGCCT -0.171, ACGTAGTG 0.0333, AGAAACAG 0.0712, CAGAGTGG -0.0137, ATCCCAAA -0.00932, TCAATCGA 0.147, CGGGACCG -0.14, GTATCGCA 0.0619, CCCGCACG -0.152, ACCTAGGT -0.0494, AGTGAAAA 0.0379, CCGCTGAC -0.133, CAGATATC 0.0834, ACAAAGTC 0.0541, ACGGTGCC -0.168, AGTGTCAA 0.116, ACTAGACT 0.036, AGCGATGA -0.0597, ATGAGAAA 0.068, TAAGACGA 0.0732, CAGGTTTA 0.0953, CCGCCTGA -0.216, ACTGGTCT -0.0659, CGCAGTTA -0.0217, AATAAGCC -0.0862, GAATAACC 0.0271, ATGCTGAG -0.124, CAACGCAG -0.0742, AACCGACC -0.0352, ACACACGG 0.128, GCCTGAAA -0.114, GCGCACCC -0.133, CTAATGCA 0.0153, ATAAACCG 0.109, CACGTCTC -0.0159, GGGCGCCC -0.325, CGTCGGAG -0.113, CATGCTAA 0.201, GACGCTCC -0.204

PBM E-score, ≥ 0.124:
GAATCACC

PBM E-score, ≥ 0.236:
AACTACTA

PBM E-score, active:
ACATCACA 0.334
